Among all 370,000 compounds or so, about 150 (0.041%) were called active. Inconclusive results, whose numbers are uncertain, are shown with a selection of clear calls. Calls follow the shape of the dose curve; as a rule, active = well fitted inhibition curve with a large enough effect; inconclusive = small, poorly fitted or top-dose-only effect; inactive = flat fitted curve, though single readings scatter. Potencies of inconclusive entries are left out as doubtful fits.
target: Beta-lactamase (Escherichia coli (strain K12)) (UniProt P00811); test: qHTS Inhibitors of AmpC Beta-Lactamase (assay with detergent); conditions: AmpC hydrolysis of nitrocefin, absorbance 480 nm, 0.01% Triton; activity change, negative = inhibition: at 114 µM (top of the series); also: nearly all actives have a fitted effect of over 25% in size;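 as to activity change, negative = inhibition: 0% = no-compound wells and -100% = no-enzyme wells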
Summary of the method: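 AmpC (5.3 nM in the dispensed reagent) in 20 mM phosphate pH 7.0 with 0.01% (detergent screen) or 0.0001% Triton X-100 was preincubated with compounds for 15 min at room temperature. Nitrocefin was then added from an 800 uM solution, and hydrolysis was followed at 480 nm.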
Potency is read from the fitted curve at half-maximal effect; tags tell the direction and shape of the fitted curve.

Sequence of UniProt P00811 (P00811 whole entry, looked up): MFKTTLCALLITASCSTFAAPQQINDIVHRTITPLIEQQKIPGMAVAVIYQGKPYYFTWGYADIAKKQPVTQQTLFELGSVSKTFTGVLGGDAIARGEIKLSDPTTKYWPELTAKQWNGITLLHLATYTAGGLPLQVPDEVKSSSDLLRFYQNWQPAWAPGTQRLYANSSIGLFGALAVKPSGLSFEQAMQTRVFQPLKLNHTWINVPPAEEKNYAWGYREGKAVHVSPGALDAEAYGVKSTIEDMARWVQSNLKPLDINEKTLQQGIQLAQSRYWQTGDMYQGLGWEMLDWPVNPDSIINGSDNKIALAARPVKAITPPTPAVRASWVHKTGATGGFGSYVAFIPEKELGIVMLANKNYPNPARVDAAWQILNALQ

Row | SMILES | Potency | activity change, negative = inhibition
1 | CN(C)c1cc(-c2ccccc2)nc(-c2ccccc2)n1 | inconclusive [inhibitor, full curve, poor fit] | –
2 | COc1ccc(Cl)cc1NC(=O)C(C)n1c(=O)cc(C(F)(F)F)c2c(C)nn(C)c21 (stereo not drawn) | – | inactive: -4.6%
3 | COc1ccc(-c2csc(NC(C)=O)n2)cc1OC | inconclusive [inhibitor, full curve, poor fit] | –
4 | COc1ccc(CNC(=S)NCc2ccc(F)cc2)cc1OC | inconclusive [inhibitor, full curve, poor fit] | –
5 | Cc1ccc(N(CC(=O)N/N=C/c2cc(C)n(-c3ccccc3)c2C)S(C)(=O)=O)c(C)c1 | inconclusive [inhibitor, full curve] | –
6 | CNC(=S)N1CCN(c2ccc(Cl)c(Cl)c2)CC1 | inconclusive [inhibitor, single point] | –
7 | O=c1c2ccccc2oc2ccc(NCCCN3CCOCC3)cc12 | inconclusive [inhibitor, partial curve, poor fit] | –
8 | CCCCCCCCCCCCCCCC[N+](C)(C)CC | – | inactive: -10.7%
9 | Cc1ccccc1OCC(=O)Nc1ccc(N2CCOCC2)cc1N1CCOCC1 | – | inactive: -7.33%
10 | CC(C)c1ccc(NC(=O)CSc2nc3ccsc3c(=O)n2CCC(=O)O)cc1 | – | inactive: 0.235%
11 | O=C(O)[C@@H]1CSC2(CCSC2)N1 (stereo partly drawn) | inconclusive [inhibitor, full curve, poor fit] | –
12 | CCOc1ccc2nc(NC(=O)CN3CCN(c4ccccn4)CC3)sc2c1 | – | inactive: -3.72%
13 | O=C(COC(=O)c1cc(=O)[nH]c(=O)[nH]1)NCc1ccccc1 | – | inactive: -5.94%
14 | CN(C(=O)Cn1nnc(-c2ccccc2)n1)C1CCS(=O)(=O)C1 (stereo not drawn) | inconclusive [inhibitor, full curve, poor fit] | –
15 | Cc1ccc(SCc2nc(-c3ccncc3)no2)cc1 | inconclusive [inhibitor, full curve] | –
16 | O=C(COC(=O)CNS(=O)(=O)c1ccc(Br)cc1Cl)NC1CCCC1 | inconclusive [inhibitor, full curve, poor fit] | –
17 | COC(=O)c1cc(Br)c(=O)n(-c2cccc(F)c2)c1 | inconclusive [inhibitor, full curve, poor fit] | –
18 | COc1ccc(CN2CCC(Oc3ccc(C(=O)N4CCCCC4)cc3)CC2)cc1C | inconclusive [inhibitor, full curve, poor fit] | –
19 | Cc1ccc(S(=O)(=O)/N=C(/NC(=S)Nc2cccc(C)c2)c2ccccc2)cc1 | – | inactive: 1.18%
20 | O=C(NCCCN1CCOCC1)c1sc2cc([N+](=O)[O-])ccc2c1Cl | inconclusive [inhibitor, partial curve] | –
21 | Cc1ccc(N2C(=O)C3C4C=CC(CNC(=S)N5CCN(c6cccc(C)c6)C(C)C5)(O4)C3C2=O)cc1 (stereo not drawn) | – | inactive: -2.06%
22 | COc1ccccc1NC(=O)C1=C(C)Nc2nc(-c3ccco3)nn2C1c1cccc(C)c1 (stereo not drawn) | – | inactive: 5.94%
23 | COc1ccc(OC)c(/C=N/NC(=O)c2ccc(Cn3cc([N+](=O)[O-])cn3)o2)c1 | inconclusive [inhibitor, partial curve] | –

Row | SMILES | Potency | activity change, negative = inhibition
24 | CC(C)(C)CN1CCN(CC#Cc2ccccc2)CC1CCO (stereo not drawn) | – | inactive: 3.63%
25 | Fc1ccc(CSc2ccc3nnc(-c4cccs4)n3n2)cc1 | – | inactive: -6.59%
26 | COc1ccc(S(=O)(=O)N2CCCCCC2)cc1NC(=O)CN1C(=O)NC(C)(c2ccccc2)C1=O (stereo not drawn) | – | inactive: -13.8%
27 | COc1ccc(C(C#N)c2cnccn2)cc1OC (stereo not drawn) | inconclusive [inhibitor, full curve, poor fit] | –
28 | Cc1cc(=O)[nH]c(SCC(N)=O)c1C#N | inconclusive [inhibitor, single point] | –
29 | O=C(NN1C(=O)c2ccccc2NC1c1ccco1)c1ccccc1 (stereo not drawn) | inconclusive [inhibitor, single point] | –
30 | CCOc1cc(/C=C2\CN(C)C/C(=C\c3ccc(O)c(OCC)c3)C2=O)ccc1O | – | inactive: 1.86%
31 | CCOc1ccc(NC(=O)CN(C)C(=O)C2=COCCO2)cc1OCC | inconclusive [inhibitor, full curve, poor fit] | –
32 | O=C(O)C1C2CCC(O2)C1C(=O)Nc1ccccc1Br (stereo not drawn) | inconclusive [inhibitor, partial curve] | –
33 | CCCc1nnc(SCC(=O)Nc2ccc(OC)cc2)n1N | inconclusive [inhibitor, full curve, poor fit] | –
34 | CCc1ccc(NC2CC(=O)N(CCc3ccc(OC)c(OC)c3)C2=O)cc1 (stereo not drawn) | inconclusive [inhibitor, partial curve, poor fit] | –
35 | CCOC(=O)N1CCC(NC(=O)C2CCCN(Cc3nc(-c4ccc(CC)cc4)oc3C)C2)CC1 (stereo not drawn) | inconclusive [inhibitor, partial curve] | –
36 | CC(NC(=O)[C@H](C)N1C(=O)N2CCc3c([nH]c4ccccc34)[C@@]2(C)C1=O)c1ccccc1 (stereo partly drawn) | inconclusive [inhibitor, full curve] | –
37 | Cc1ccc(O)c(C(=O)c2cnn(C(=O)c3cccc(S(=O)(=O)N(C)C)c3)c2)c1 | inconclusive [inhibitor, single point] | –
38 | COc1ccc(C2=NN(C(=O)c3cccc([N+](=O)[O-])c3)C(c3cccc([N+](=O)[O-])c3)C2)cc1 (stereo not drawn) | inconclusive [inhibitor, full curve] | –
39 | COc1ccc(NC(=O)CN(C)C(=O)c2ccccc2CCc2ccccc2)cc1 | inconclusive [inhibitor, full curve] | –
40 | CCSc1nc2sc3c(c2c2[n+]1CC(CBr)O2)CCCC3 (stereo not drawn) | – | inactive: 2.12%
41 | COc1cccc(CNC2CCCc3ccccc32)c1OC (stereo not drawn) | – | inactive: -1.34%
42 | CC(CNc1nc2ccccc2c2nc(-c3ccccc3)nn12)c1ccccc1 (stereo not drawn) | – | inactive: -6.99%
43 | CC(C)CC(NS(=O)(=O)c1ccccc1S(=O)(=O)NC(CC(C)C)C(=O)O)C(=O)O (stereo not drawn) | inconclusive [inhibitor, full curve, poor fit] | –
44 | O=C(NNC(=O)c1cc2ccccc2cc1O)Nc1ccc(Br)cc1 | inconclusive [inhibitor, partial curve, poor fit] | –
45 | COc1ccc(NC(=O)c2cc(=O)c3cc(C)cc(C)c3o2)cc1 | – | inactive: 8.89%
46 | O=S(=O)(NCc1ccccn1)c1ccc(F)cc1 | inconclusive [inhibitor, full curve, poor fit] | –

Row | SMILES | Potency | activity change, negative = inhibition
47 | CCOc1ccc(NC(=S)Nc2cccc3cnccc23)cc1 | inconclusive [inhibitor, single point] | –
48 | Cc1ccc(OCCOc2cccc(Br)c2)c([N+](=O)[O-])n1 | – | inactive: -0.911%
49 | O=C(O)c1cccc(-n2cccc2/C=C2/NC(=O)N(c3ccc(Cl)cc3)C2=O)c1 | – | inactive: -6.38%
50 | CC(C)CCOc1cccc(OCC(=O)N(C)C2CCS(=O)(=O)C2)c1 (stereo not drawn) | inconclusive [inhibitor, full curve] | –
51 | O=C1C2C3C=CC(CC3)C2C(=O)N1c1ccc(Cl)cc1Cl (stereo not drawn) | inconclusive [inhibitor, full curve, poor fit] | –
52 | COc1ccc(CC(NC(C)=O)C(=O)NC2CCN(c3c(Cc4ccccc4)c(C)nc4ncnn34)CC2)c(OC)c1 (stereo not drawn) | – | inactive: -1.24%
53 | CC1CCCCN1Cc1c(O)ccc2c(=O)c(-c3ccc(Cl)cc3)coc12 (stereo not drawn) | inconclusive [inhibitor, single point] | –
54 | CN(C)/C=C/C(=O)c1nnn(C2CCCCC2)c1NC1CCCCC1 | inconclusive [inhibitor, full curve, poor fit] | –
55 | Cc1ccc(CCNC(=O)C(C)n2nc(C)c3c(C)n(-c4ccc(C)cc4)nc3c2=O)cc1 (stereo not drawn) | inconclusive [inhibitor, single point] | –
56 | C=CCn1c(Cc2cccs2)nnc1SCC(=O)NCc1ccco1 | inconclusive [inhibitor, full curve, poor fit] | –
57 | COc1cccc(C2NC(C)(C(=O)O)C3C(=O)N(C(C)C)C(=O)C23)c1O (stereo not drawn) | inconclusive [inhibitor, full curve, poor fit] | –
58 | COc1ccc(OCCCC(=O)Nc2cc(S(=O)(=O)N3CCCCC3)ccc2OC)cc1 | inconclusive [inhibitor, full curve, poor fit] | –
59 | CCOC(=O)N1CCC(N2CCN(Cc3ccccc3)C(CCO)C2)CC1 (stereo not drawn) | – | inactive: 0.379%
60 | CCN1CCN(c2nc3c(c(=O)n(C)c(=O)n3C)n2CCSc2nccc(C)n2)CC1 | inconclusive [inhibitor, full curve, poor fit] | –
61 | O=C(Cn1cccc(C(F)(F)F)c1=O)c1ccc(Cl)cc1 | – | inactive: 6.19%
62 | CS(=O)(=O)Nc1ccc(Cc2ccc(NS(C)(=O)=O)cc2)cc1 | inconclusive [inhibitor, single point] | –
63 | Cc1cccnc1Nc1nc(-c2ccccn2)cs1 | inconclusive [inhibitor, full curve, poor fit] | –
64 | CCCCn1c(N)c(N(C(=O)CSc2nnnn2-c2ccccc2)C2CCCC2)c(=O)[nH]c1=O | – | inactive: 5.65%
65 | CCOC(=O)N1CCC(NC(=O)c2ccc3c(c2)N(Cc2ccc(F)cc2)C(=O)c2ccccc2S3=O)CC1 (stereo not drawn) | – | inactive: -9.71%
66 | COc1ccc(-n2c(Cc3cccc([N+](=O)[O-])c3)nc3ccccc3c2=O)cc1 | inconclusive [inhibitor, partial curve, poor fit] | –
67 | COC(=O)c1cc(C(=O)OCC(=O)N2c3ccccc3NC(=O)C2(C)C)cc([N+](=O)[O-])c1 | inconclusive [inhibitor, partial curve, poor fit] | –
68 | Cc1ccc(C)c(NC(=O)CSc2nnc(NC(=O)Nc3ccccc3)s2)c1 | – | inactive: 1.2%
